Measurements: the supplement of paper PMC8728848
Some of the results follow.

Assays:
Assay in all cases: glycan array binding signal (z-score within array); higher = stronger binding
Conditions in all cases: glycan notation: IUPAC condensed, linker removed
[1] = target: Man(a1-2)Man(a1-3)[Man(a1-2)Man(a1-6)]Man(a1-6)[Man(a1-2)Man(a1-2)Man(a1-3)]Man(b1-4)GlcNAc(b1-4)GlcNAc
How it was run: (§1)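 Negative Z-scores can be read as non-binding. The Z-score is calculated within each array and then averaged across arrays of one protein sequence at different concentrations or buffers and across linkers. Arrays, 3228 in all, were curated from the Consortium for Functional Glycomics database and kept only where the protein sequence was available.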

[2] = target: Man(a1-2)Man(a1-3)[Man(a1-6)]Man(a1-6)[Man(a1-2)Man(a1-3)]Man(b1-4)GlcNAc(b1-4)GlcNAc
How it was run: as §1

[3] = target: Man(a1-2)Man(a1-6)[Man(a1-3)]Man(a1-6)[Man(a1-2)Man(a1-2)Man(a1-3)]Man
How it was run: as §1

[4] = target: Man(a1-2)Man(a1-6)[Man(a1-3)]Man(a1-6)[Man(a1-2)Man(a1-2)Man(a1-3)]Man(b1-4)GlcNAc(b1-4)GlcNAc
How it was run: as §1

[5] = target: Man(a1-3)[Man(a1-6)]Man
How it was run: as §1

[6] = target: Man(a1-3)[Man(a1-6)]Man(a1-6)[Man(a1-2)Man(a1-3)]Man(b1-4)GlcNAc(b1-4)GlcNAc
How it was run: as §1

[7] = target: Man(a1-3)[Man(a1-6)]Man(a1-6)[Man(a1-3)]Man
How it was run: as §1

[8] = target: Man(a1-3)[Man(a1-6)]Man(a1-6)[Man(a1-3)]Man(b1-4)GlcNAc(b1-4)GlcNAc
How it was run: as §1

[9] = target: Man(a1-3)[Man(a1-6)]Man(b1-4)GlcNAc(b1-4)GlcNAc
How it was run: as §1

[10] = target: Man(a1-3)[Man(a1-6)]Man(b1-4)GlcNAc(b1-4)[Fuc(a1-6)]GlcNAc
How it was run: as §1

[11] = target: Man(a1-6)Man
How it was run: as §1

[12] = target: Man(b1-4)GlcNAc
How it was run: as §1

[13] = target: Neu5Ac(a2-3)Gal
How it was run: as §1

[14] = target: Neu5Ac(a2-3)Gal(b1-3)GalNAc
How it was run: as §1

[15] = target: Neu5Ac(a2-3)Gal(b1-3)GalNAc(b1-3)Gal(a1-4)Gal(b1-4)Glc
How it was run: as §1

[16] = target: Neu5Ac(a2-3)Gal(b1-3)GalNAc(b1-4)[Neu5Ac(a2-3)]Gal(b1-4)Glc
How it was run: as §1

[17] = target: Neu5Ac(a2-3)Gal(b1-3)GalNAc(b1-4)[Neu5Ac(a2-8)Neu5Ac(a2-3)]Gal(b1-4)Glc
How it was run: as §1

[18] = target: Neu5Ac(a2-3)Gal(b1-3)GalNAc6S
How it was run: as §1

[19] = target: Neu5Ac(a2-3)Gal(b1-3)GlcNAc
How it was run: as §1

[20] = target: Neu5Ac(a2-3)Gal(b1-3)GlcNAc(b1-2)Man(a1-3)[GlcNAc(b1-4)][Neu5Ac(a2-3)Gal(b1-3)GlcNAc(b1-2)Man(a1-6)]Man(b1-4)GlcNAc(b1-4)GlcNAc
How it was run: as §1

[21] = target: Neu5Ac(a2-3)Gal(b1-3)GlcNAc(b1-3)Gal(b1-3)GlcNAc
How it was run: as §1

[22] = target: Neu5Ac(a2-3)Gal(b1-3)GlcNAc(b1-3)Gal(b1-4)GlcNAc
How it was run: as §1

[23] = target: Neu5Ac(a2-3)Gal(b1-3)GlcNAc(b1-3)GalNAc
How it was run: as §1

[24] = target: Neu5Ac(a2-3)Gal(b1-3)GlcNAc(b1-6)GalNAc
How it was run: as §1

[25] = target: Neu5Ac(a2-3)Gal(b1-3)GlcNAc6S
How it was run: as §1

[26] = target: Neu5Ac(a2-3)Gal(b1-3)[Fuc(a1-4)]GlcNAc
How it was run: as §1

[27] = target: Neu5Ac(a2-3)Gal(b1-3)[Fuc(a1-4)]GlcNAc(b1-3)Gal(b1-3)[Fuc(a1-4)]GlcNAc
How it was run: as §1

[28] = target: Neu5Ac(a2-3)Gal(b1-3)[Fuc(a1-4)]GlcNAc(b1-3)Gal(b1-4)[Fuc(a1-3)]GlcNAc
How it was run: as §1

[29] = target: Neu5Ac(a2-3)Gal(b1-3)[Neu5Ac(a2-3)Gal(b1-4)]GlcNAc
How it was run: as §1

[30] = target: Neu5Ac(a2-3)Gal(b1-3)[Neu5Ac(a2-6)]GalNAc
How it was run: as §1

B1: PitA (Streptococcus oralis), G3F8D8 (protein)
chain: MNIRFDFKKVQIIARRLVTLLAILFLCAPISLLNADSTTEPQTTLHKTITPISGQDDKYELSLDITSKLGTETQTDPLDVVLVADLSGSMQNQDVQSFDGRTISRIDALKNTLRGTNGRKGLIDTILSNSNNRLSMVGFGGKIDNKKVDQYWDGNKWRLFRPYWPYERMTKYYDGVSPWDDANTILGWSNNARAAKTAVYNMSIAGGNSIGTESGIGTGTNIGAGLTLANQLMGSARSNAKKVVILLSDGFANMVYDANGYTIYNYNNEDPNIETAPQWFWDRLNNNLNSLSYSLAPTLDGFYSIKFRYSNNVDSITSLQYYMRQHNASIPNEIFSANDEDQLRDSFKDITDKILPLGIHHVSIKDVLSKYVQLLPNGSSEFRVVKEKDGSSEILIENQVTFDTKTTSEGLVEVTAKFSPNYSLEDGARYVLKFTVTSSQEALDAIAGDKKLEAGDAEGSDVNKLYSNKGASVTYSYGIGNSQTKTKEYSDNPTFKPSDPLTVPVEVEWQGVTGARTVITADQPSNVELKLVQKNKNGGSDNQDYRKTNVNVSKNVSNETRNFEKVAKGYQYDLIAPDVPAFTKEIKNVGTESKPSFKVIYKQLPSLTIKKVLEAENNLNKEFRIKVKLTSPDSKPLNGTFGEITVVNGEAEIRVEKRKRWEGILSYLPRGTHYKVEEEAASTNGYHVTYENQEGDLNKDETSIVTNHKLPSLSVTKKVTGVFANLLKSFKITINIRDAQNSPLNGTYTATVNNKRTPLQFTNGRASIDLNKDQTIKIYGLPLDSHYTVEEESNSSRGYQVSYENQEGKLDGDKSATVTNNKNSVPETGVDFLSSTLMLGIILPLGGIFFTILLGYLVVHRRK
B1 was tested, and the “glycan array binding signal (z-score)” value [1] was -0.151, the “glycan array binding signal (z-score)” value [2] was -0.351 and the “glycan array binding signal (z-score)” value [3] was -0.267. For the same binder, the “glycan array binding signal (z-score)” value [4] was -0.223, the “glycan array binding signal (z-score)” value [5] was -0.627 and the “glycan array binding signal (z-score)” value [6] was -0.626. The “glycan array binding signal (z-score)” value [7] was -0.513, the “glycan array binding signal (z-score)” value [8] was 0.006 and the “glycan array binding signal (z-score)” value [9] was -0.534. For the same binder, the “glycan array binding signal (z-score)” value [10] was 0.224, the “glycan array binding signal (z-score)” value [11] was -0.46 and the “glycan array binding signal (z-score)” value [12] was -0.021. For the same binder, the “glycan array binding signal (z-score)” value [13] was -0.309, the “glycan array binding signal (z-score)” value [14] was -0.302 and the “glycan array binding signal (z-score)” value [15] was -0.418. The “glycan array binding signal (z-score)” value [16] was -0.417, the “glycan array binding signal (z-score)” value [17] was -0.214 and the “glycan array binding signal (z-score)” value [18] was -0.409. For the same binder, the “glycan array binding signal (z-score)” value [19] was -0.534, the “glycan array binding signal (z-score)” value [20] was 0.166 and the “glycan array binding signal (z-score)” value [21] was -0.709. For the same binder, the “glycan array binding signal (z-score)” value [22] was -0.381, the “glycan array binding signal (z-score)” value [23] was -0.148 and the “glycan array binding signal (z-score)” value [24] was -0.42. The “glycan array binding signal (z-score)” value [25] was -0.57, the “glycan array binding signal (z-score)” value [26] was -0.535 and the “glycan array binding signal (z-score)” value [27] was 0.559. For the same binder, the “glycan array binding signal (z-score)” value [28] was 0.383, the “glycan array binding signal (z-score)” value [29] was -0.251 and the “glycan array binding signal (z-score)” value [30] was 0.755.
